The campaign covered roughly 310,000 compounds. About 14,000 (4.5%) showed an effect of 50% or more. Effects have a minus sign here. The list shows a part of the results.
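Further: peak tail current of the secondary pulse compared with the same well before compound.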

The target of the assay is human ether-à-go-go-related gene (hERG) potassium channel (human, UniProt Q12809). Briefly: primary screen, population patch clamp on CHO cells stably expressing hERG.
Sequence of human ether-à-go-go-related gene (hERG) potassium channel (Q12809 whole entry, looked up): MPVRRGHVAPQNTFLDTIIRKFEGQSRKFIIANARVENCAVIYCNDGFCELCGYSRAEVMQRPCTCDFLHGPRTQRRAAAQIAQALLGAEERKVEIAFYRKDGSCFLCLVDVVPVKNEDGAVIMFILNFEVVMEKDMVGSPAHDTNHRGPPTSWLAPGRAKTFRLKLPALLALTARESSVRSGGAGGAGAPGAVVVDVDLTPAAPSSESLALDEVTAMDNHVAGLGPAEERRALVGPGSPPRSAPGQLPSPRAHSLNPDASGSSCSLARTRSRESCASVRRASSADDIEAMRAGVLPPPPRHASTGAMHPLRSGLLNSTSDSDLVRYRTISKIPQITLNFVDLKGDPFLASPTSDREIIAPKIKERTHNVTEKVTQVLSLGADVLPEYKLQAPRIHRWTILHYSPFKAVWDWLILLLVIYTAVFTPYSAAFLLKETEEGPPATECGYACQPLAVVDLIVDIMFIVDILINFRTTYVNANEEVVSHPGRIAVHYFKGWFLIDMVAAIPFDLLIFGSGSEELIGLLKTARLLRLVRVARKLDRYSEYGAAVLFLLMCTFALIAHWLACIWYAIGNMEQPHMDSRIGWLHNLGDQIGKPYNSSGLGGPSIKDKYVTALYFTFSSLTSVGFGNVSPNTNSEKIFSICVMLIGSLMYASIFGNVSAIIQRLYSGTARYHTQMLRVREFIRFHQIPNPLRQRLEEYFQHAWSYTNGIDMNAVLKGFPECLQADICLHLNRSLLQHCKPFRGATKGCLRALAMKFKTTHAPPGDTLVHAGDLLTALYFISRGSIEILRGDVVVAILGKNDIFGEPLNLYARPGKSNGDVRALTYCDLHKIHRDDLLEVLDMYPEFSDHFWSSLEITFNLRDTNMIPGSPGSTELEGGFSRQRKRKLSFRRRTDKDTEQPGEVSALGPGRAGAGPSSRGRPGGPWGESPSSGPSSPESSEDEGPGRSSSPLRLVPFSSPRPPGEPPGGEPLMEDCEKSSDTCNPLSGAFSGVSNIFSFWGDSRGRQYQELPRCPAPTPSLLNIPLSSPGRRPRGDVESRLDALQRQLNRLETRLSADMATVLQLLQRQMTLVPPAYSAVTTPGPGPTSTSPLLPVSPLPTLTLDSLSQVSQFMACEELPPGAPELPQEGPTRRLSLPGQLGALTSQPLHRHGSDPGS
In the case of `Cc1cccnc1CC(C)NC(=O)c1cc(COc2cncc(Cl)c2)on1` (centres unmarked), the “hERG current change (%, negative = inhibition) at 10uM” value is recorded as -3.75%.
Regarding `O=C(Nc1cccc(NC(=O)c2cccs2)c1)c1ccc(Br)cc1`, the “hERG current change (%, negative = inhibition) at 10uM” value is reported as 13.5%.
Under `COC(=O)CC1=C(C(=O)OC)C2(C(=O)Nc3c(C)cccc32)C(C#N)=C(N)O1` (centres unmarked) stands -3.24%; under `COc1ccccc1/C=C(\NC(=O)c1ccc(OC)c(OC)c1)C(=O)Nc1cccc([N+](=O)[O-])c1`, -3.5%.
Take `CCCCNC(=O)Cn1cnc2c(cnn2-c2ccc(C)cc2)c1=O`: the “hERG current change (%, negative = inhibition) at 10uM” value turned out to be 1.75%.
Next, `COc1cccc(NC(=O)CN(C)C(C)C(=O)Nc2ccc(S(=O)(=O)N3CCCC3)cc2)c1` (centres unmarked): -0.933%; `CCCc1nc(SCC(=O)Nc2ccc(S(=O)(=O)N(C)C)cc2)c2ccccc2n1`: 1.09%.
As for `O=C(Nc1ccc(-c2nc3cc(Cl)ccc3o2)cc1)C1CCCO1` (centres unmarked), the “hERG current change (%, negative = inhibition) at 10uM” value was determined as 8.99%.
For `CC(Nc1ccc2ccccc2c1)C(=O)N/N=C/c1ccncc1` (centres unmarked), the “hERG current change (%, negative = inhibition) at 10uM” value is reported as -24.5%.
Turning to `Cc1ccc(NC(=O)CN2C(=O)COc3ccc(C)cc32)nc1`, the “hERG current change (%, negative = inhibition) at 10uM” value is 6.7%.
As to `Cc1cccc2c(C(=O)O)cc(-c3cccnc3)nc12`, the “hERG current change (%, negative = inhibition) at 10uM” value is given as 33.3%.
In the case of `CC(CCCC(C)(C)O)NC(=O)c1ccc(OC2CCN(C(=O)C3CC3)CC2)cc1` (centres unmarked), the “hERG current change (%, negative = inhibition) at 10uM” value stood at 8.3%.
Next, `O=[N+]([O-])c1cc([N+](=O)[O-])c2cccnc2c1Oc1ccccc1O`: -0.878%.
Under `Cc1nc(N2CCN(Cc3ccccc3)CC2)nc2c1C(=O)CC(c1ccco1)C2` (centres unmarked) stands -6.63%.
Take `CCN(CC)CCN1C(=O)C(=O)/C(=C(/O)c2c(C)[nH]c(C(=O)OC)c2C)C1c1ccco1` (centres unmarked): the “hERG current change (%, negative = inhibition) at 10uM” value worked out at 2.55%.
On to `Cc1ccc(CCn2c3c(c4ccccc42)CN(C)CC3)cn1`, for which the “hERG current change (%, negative = inhibition) at 10uM” value is recorded as -3.74%.
Turning to `CC(C)c1nnc(NC(=O)C2CCN(c3cnccn3)CC2)s1`, the “hERG current change (%, negative = inhibition) at 10uM” value is on record as -1.06%.
Next, `COc1ccc2cc(C(=O)/C=C/c3cc(OC)c(OC)c(OC)c3)ccc2c1`: 19.7%; `COc1cccc(NC(=O)N2CCc3ccccc3C2)c1`: 14.4%; `CN(C)CCNC(=O)c1ccccc1-c1cc2ccccc2c(=O)o1`: -54.6%.
On to `O=C(Nc1nc(-c2ccc(-c3ccccc3)cc2)cs1)c1cc([N+](=O)[O-])ccc1N1CCOCC1`, for which the “hERG current change (%, negative = inhibition) at 10uM” value is on record as 7.83%.
With `Cc1nc(NC(=O)c2ccc(Br)s2)sc1C(=O)N(C)C`, the “hERG current change (%, negative = inhibition) at 10uM” value turned out to be 0.336%.
As for `CN(CC(=O)Nc1cccc(F)c1)C(=O)c1ccc2c(c1)S(=O)(=O)N=C1CCCCCN12`, the “hERG current change (%, negative = inhibition) at 10uM” value turned out to be 9.21%.
As to `Cc1onc(C(=O)NC(C)c2ccccc2)c1[N+](=O)[O-]` (centres unmarked), the “hERG current change (%, negative = inhibition) at 10uM” value is listed as -10.8%.
Under `O=C(/C=C/Nc1nccs1)C(F)(F)Cl` stands 10.5%; under `CCCN1CCC(=O)N(CCSc2ccccc2)CC1`, -15.1%; under `O=C(Cn1c(-c2ccccc2)c[n+]2ccsc12)c1ccccc1.[Br-]`, -9.99%.
Regarding `O=C(CCN1C(=O)c2cccc3cccc(c23)C1=O)Nc1ccon1`, the “hERG current change (%, negative = inhibition) at 10uM” value is on record as 14%.
For the compound `COCCn1nnnc1C(C(C)C)N1CCSCC1.Cl` (centres unmarked), the “hERG current change (%, negative = inhibition) at 10uM” value is on record as 90.5%.
In the case of `Nc1n[nH]c(-c2cccc([N+](=O)[O-])c2)n1`, the “hERG current change (%, negative = inhibition) at 10uM” value is 6.47%.
As for `Cn1c(Cn2c(=O)sc3ccccc32)nnc1SCC(=O)NC1CCCCC1`, the “hERG current change (%, negative = inhibition) at 10uM” value worked out at 12.2%.
Regarding `COc1ccc(C2=CC(c3ccc(OC)c(OC)c3)n3nnnc3N2)c(OC)c1` (centres unmarked), the “hERG current change (%, negative = inhibition) at 10uM” value is -5.66%.
Under `CCOc1ccc(-c2nnc(NC(=O)c3ccc(OCC(C)C)c(OC)c3)o2)cc1` stands 0.141%.
With `O=S(=O)(Nc1ccc(S(=O)(=O)Nc2ncccn2)cc1)c1ccccc1`, the “hERG current change (%, negative = inhibition) at 10uM” value amounted to 15.5%.
Next, `N#Cc1cc([N+](=O)[O-])cnc1N(CCO)CCO`: -1.1%.
Next, `C=CCN(c1ccccc1C(=O)NCC(=O)OCC)S(=O)(=O)c1ccc(C)cc1`: -3.31%; `COCCCNC(=S)N1CCN(C(=O)C(=O)Nc2ccc(C(=O)OC)cc2)CC1`: -14.5%.
Turning to `CCCN1CCN(CCCNC(=O)C2CCN(c3nnc(-n4cccc4)s3)CC2)CC1`, the “hERG current change (%, negative = inhibition) at 10uM” value is given as -14.4%.
Under `O=Cc1ccc(OCC(=O)Nc2ccccc2C(F)(F)F)cc1` stands -7.35%; under `O=C(Nc1cc2c3c(c1)C1CCCC1CN3CC1CCCC21)c1ccc([N+](=O)[O-])cc1` (centres unmarked), 4.65%; under `Oc1ccccc1CNc1ccc(OC(F)(F)F)cc1`, 6.85%.
Take `CS(=O)(=O)N(CC(=O)N1CCCC1)c1ccccc1Br`: the “hERG current change (%, negative = inhibition) at 10uM” value was found to be 11.1%.
Next, `CCN(C(=O)CSc1nnc(NCc2ccccc2)s1)C1CCS(=O)(=O)C1` (centres unmarked): 8.38%; `CC(C)N(C(=O)C[n+]1ccsc1N)c1ccccc1.[Cl-]`: 16.7%.

Values taken from paper PMC4336329 (PLoS ONE, 2015).
